Measurements reported in PubChem BioAssay AID1508642 (National Center for Advancing Translational Sciences (NCATS), 2021).
About 200 (0.47%) of roughly 43,000 compounds were called active. Not shown: some 12% with an inconclusive outcome. Calls come from the whole dose curve; as a rule, active = well fitted cell-killing curve with a large enough effect; inconclusive = small, poorly fitted or top-dose-only effect, or effect the other way; inactive = flat fitted curve, though single readings scatter. This is one part of the list.

Assay: Cell viability qHTS assay in S16 Pmp22-F2sN cells; note: nearly all actives have a fitted effect of over 65% in size
Details: S16 Pmp22-F2sN Schwann cells (luciferase reporters placed in the Pmp22 gene) viability, CellTiter-Glo, 24 h; series mostly up to 57.5 µM; activity change, negative = cytotoxicity: at the top concentration
In short: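 Seed 500-1,000 S16 Pmp22-F2sN cells per well in phenol-red-free DMEM with 10% heat-inactivated FBS; pin-add 23 nL compound; incubate 24 h at 37C; add CellTiter-Glo, wait 15 min protected from light; read luminescence.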
% is set by controls: 0 for no effect and ±100 for the full control effect.

SMILES	activity change, negative = cytotoxicity
CC(C)c1ccc(NC(=O)c2ccc(F)c(S(=O)(=O)N3CCc4ccccc43)c2)cc1	inactive: -5.43%
O=C(C1CCCN(S(=O)(=O)c2cccc3nsnc23)C1)N1CCN(c2ccccc2F)CC1 (configuration not stated)	inactive: -12.8%
CCC(C)NC(=O)CSc1nc2n[nH]c(C)c2c(=N)n1-c1cc(Cl)ccc1C (configuration not stated)	inactive: 0.266%
CCC1=Nc2cc(C(=O)NC3CCC(C)CC3)ccc2Sc2ccc(C)cc21 (configuration not stated)	inactive: -2.75%
CCC1CN(C(=O)N2CCC(C(=O)NCc3cccc(OC)c3OC)CC2)c2cc(C)ccc2O1 (configuration not stated)	inactive: -18.3%
CCc1ccc(NC(=O)CCn2c(=O)c3cccn3c3ccccc32)cc1	inactive: -8.94%
Cc1ccccc1NC(=O)CSc1nc2ccc(NC(=O)c3cccs3)cc2s1	inactive: -0.202%
CSc1cccc(NC(=O)c2cccc(N3CCCS3(=O)=O)c2)c1	inactive: -21.2%
COc1cccc(-c2noc(C3CC(=O)N(c4ccc(F)cc4)C3)n2)c1OC (configuration not stated)	inactive: 7.87%
COc1ccccc1CNC(=O)c1cc2sccc2n1Cc1ccc(Cl)cc1	inactive: 7.56%
Cc1cccc(NC(=O)COC(=O)CCCC2=NS(=O)(=O)c3ccccc3N2)c1	inactive: 0.825%
COc1ccc(S(=O)(=O)c2cn(C)c3ccc(C)cc3c2=O)cc1	inactive: 4.51%
O=C(Nc1ccc(F)cc1C(F)(F)F)C1CCN(c2ncccn2)CC1	inactive: 0.929%
Cc1cccc(NC(=O)c2c(C)cc(C)nc2SCC(=O)c2ccccc2)c1	inactive: -19.2%
Cc1ccc(-n2cc(C(=O)Oc3cccc(C)c3)c3ccccc3c2=O)cc1	inactive: -1.33%
O=c1c2ccccc2n(Cc2ccccc2Cl)c(=O)n1CCc1ccccc1	inactive: 7.47%
CCOC(=O)c1ccc(Nc2nc3ccc(C(=O)c4ccccc4)cc3n3c(C)nnc23)cc1	inactive: -0.832%
CCCN(CCC)C(=O)Cn1c(=O)n(-c2ccc(CC)cc2)c(=O)c2ccc(C(=O)NCCc3ccccc3)cc21	inactive: 2.45%
COc1ccc(CCNC(=O)c2ccc3c(c2)CCN3S(=O)(=O)c2ccc(C)cc2)cc1	inactive: -6.27%
CC(C)(C)OC(=O)N1CCC(c2c(C(=O)NC3CCN(Cc4ccccc4)CC3)cnn2-c2ccc(F)cc2F)CC1	inactive: -22.2%
CCOc1ccc(NC(=O)C(=O)c2cc(C)n(-c3cc(C)cc(C)c3)c2C)cc1	inactive: 9.03%

SMILES	activity change, negative = cytotoxicity
Cc1ccc(NC(=O)C2CCCN(S(=O)(=O)c3ccc4c(c3)oc(=O)n4C)C2)cc1Cl (configuration not stated)	inactive: 2.4%
COc1ccc(-c2cc(C(=O)NCCc3ccccc3)c3c(-c4ccccc4)[nH]nc3n2)cc1OC	inactive: -25.6%
CCCCCOc1ccc(Cn2c(=O)oc3ccccc32)cc1	inactive: -0.738%
COc1cc(Cl)c(NC(=O)CCS(=O)(=O)c2ccc3c(c2)NC(=O)CO3)c(OC)c1	inactive: 0.0347%
COc1ccc(NC(=O)c2c(NCc3sccc3C)sc3c2CCCC3)c(OC)c1	inactive: 19%
CCc1nn2c(=O)cc(COC(=O)CNC(=O)COc3ccc(C)cc3)nc2s1	inactive: 28.1%
CCCn1c(=O)sc2cc(NC(=O)c3ccc(OC)c(Br)c3)ccc21	inactive: -28.5%
Cc1ccc(-n2nc(CO)c(C(=O)NC(C)CCCc3ccccc3)n2)cc1 (configuration not stated)	inactive: -0.328%
COc1ccc(Nc2nc(N)nc(N)c2S(=O)(=O)c2ccccc2)cc1	inactive: 29.2%
Cc1cn(C)c(CC(=O)N2CCN(c3cccc(Cl)c3)CC2)c1C(=O)O	inactive: -1.97%
Cc1ccc(NC(=O)CN2CCN(S(=O)(=O)c3ccc(C(C)C)cc3)CC2)cc1F	inactive: -29.7%
Cc1cccc(C2C=C(c3ccc(C)c(C)c3)Nc3nnnn32)c1 (configuration not stated)	inactive: -4.01%
CCOc1ccccc1C(=O)NC1(C(F)(F)F)NC(=O)N(CCc2ccc(OC)c(OC)c2)C1=O (configuration not stated)	inactive: -0.421%
COc1cc(OC)cc(-c2cc3nc(C)c(CCC(=O)NCc4ccccc4)c(C)n3n2)c1	inactive: -5.27%
O=C(Nc1ccc(O)c(-c2nc3ccccc3o2)c1)c1sc2ccccc2c1Cl	inactive: 1.45%
O=C(CSCc1cnn(-c2ccccc2)c1-n1cccc1)NCc1ccc(Cl)cc1	inactive: 2.81%
O=C(Nc1nnc(S(=O)(=O)N2CCCc3ccccc32)s1)c1ccccc1Cl	inactive: 4.27%
CCOc1ccccc1NC(=O)Cn1ncc2c(=O)oc3ccc(C)cc3c21	inactive: 0.932%
CCOC(=O)c1c(C)oc2ncnc(Nc3ccc(OC)cc3OC)c12	inactive: 12.6%
COc1ccccc1NC(=O)CSC1=Nc2ccccc2C2=NC(CCC(=O)NCCc3ccccc3)C(=O)N12 (configuration not stated)	inactive: -0.0569%
CCOc1ccccc1CNC(=O)C1CCN(S(=O)(=O)c2ccc3[nH]c(=O)ccc3c2)CC1	inactive: 15.4%

SMILES	activity change, negative = cytotoxicity
CN1C(=O)Cc2cc(S(=O)(=O)NCCc3ccc(Cl)cc3)ccc21	inactive: 0.369%
COc1ccc(-c2noc(CSc3nnc(C)n3-c3ccc(C)cc3)n2)cc1OC	inactive: -17.7%
O=C(Nc1nc2c(s1)CCCCCC2)Nc1ccc(F)cc1F	inactive: -0.109%
COc1ccc(N2CCN(C(c3ccccc3)c3sc4nc(-c5ccco5)nn4c3O)CC2)cc1 (configuration not stated)	inactive: 8.64%
Cc1ccc(C(=O)Nc2cc(-c3nc4ncccc4o3)ccc2C)c(C)c1	inactive: -1.33%
COCc1nn2cc(-c3ccc(C)cc3)nc2s1	inactive: -9.1%
Cc1cccc(N2CCN(C(=O)Cc3c(C(=O)O)c(C)cn3C)CC2)c1C	inactive: 0.768%
CC(=O)N1CCc2c(sc3c2c(=O)n(Cc2ccccc2)c(=O)n3Cc2ccc(C)cc2)C1	inactive: 0.962%
COC(=O)c1ccc(Cn2cnc3nc4c(cc3c2=O)CCCC4)cc1	inactive: 2.81%
CC(=O)c1ccc(N2CCN(C(=O)C3CCN(S(=O)(=O)c4c(C)noc4/C=C/c4ccc(C)cc4)CC3)CC2)cc1	inactive: -7.68%
CCOCCCNC(=O)C1CCN(C(=O)c2cc3sccc3n2C)CC1	inactive: -1.71%
CCC(Cc1ccccc1)NC(=O)CN1C(=O)COc2ccc(S(=O)(=O)N3CCCCCC3)cc21 (configuration not stated)	inactive: 3.52%
Cc1cc2c(cc1NC(=O)c1ccccc1C)n(C)c(=O)c(=O)n2C	inactive: 9.33%
COc1ccc(CCNC(=O)CCCn2c(=O)c3cccn3c3ccccc32)cc1OC	inactive: 5.04%
O=C(COc1ccccc1)OCc1cc(=O)n2nc(C3CC3)sc2n1	inactive: -4.13%
COc1cc(-c2nnc(SCCOc3ccc(Cl)cc3)o2)cc(OC)c1OC	inactive: 1.02%
CCc1ccc(CNC(=O)CCCN2C(=O)CCn3nc(-c4cccn4C)cc32)cc1	inactive: 18.5%
COc1ccc(NC(=O)CCCN2C(=O)C(c3ccccc3)Oc3cccnc32)c(OC)c1 (configuration not stated)	inactive: 8.7%
CCc1ccc2oc(C(=O)Nc3cccc(Cl)c3C)cc(=O)c2c1	inactive: -5.12%
CC(C)CCN(Cc1ccco1)C(=O)c1cc2c(s1)-c1ccccc1OC2	inactive: 2.92%
